Reference: paper PMC4336329 (PLoS ONE, 2015)
The whole screen tested about 310,000 compounds, of which about 14,000 (4.5%) showed an effect of 50% or more. The effect is printed as a negative number. The list shows a part of the results.

target: human ether-à-go-go-related gene (hERG) potassium channel (human, UniProt Q12809); assay: primary screen, population patch clamp on CHO cells stably expressing hERG
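Note: peak tail current of the secondary pulse compared with the same well before compound.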

Sequence of human ether-à-go-go-related gene (hERG) potassium channel (Q12809 whole entry, looked up): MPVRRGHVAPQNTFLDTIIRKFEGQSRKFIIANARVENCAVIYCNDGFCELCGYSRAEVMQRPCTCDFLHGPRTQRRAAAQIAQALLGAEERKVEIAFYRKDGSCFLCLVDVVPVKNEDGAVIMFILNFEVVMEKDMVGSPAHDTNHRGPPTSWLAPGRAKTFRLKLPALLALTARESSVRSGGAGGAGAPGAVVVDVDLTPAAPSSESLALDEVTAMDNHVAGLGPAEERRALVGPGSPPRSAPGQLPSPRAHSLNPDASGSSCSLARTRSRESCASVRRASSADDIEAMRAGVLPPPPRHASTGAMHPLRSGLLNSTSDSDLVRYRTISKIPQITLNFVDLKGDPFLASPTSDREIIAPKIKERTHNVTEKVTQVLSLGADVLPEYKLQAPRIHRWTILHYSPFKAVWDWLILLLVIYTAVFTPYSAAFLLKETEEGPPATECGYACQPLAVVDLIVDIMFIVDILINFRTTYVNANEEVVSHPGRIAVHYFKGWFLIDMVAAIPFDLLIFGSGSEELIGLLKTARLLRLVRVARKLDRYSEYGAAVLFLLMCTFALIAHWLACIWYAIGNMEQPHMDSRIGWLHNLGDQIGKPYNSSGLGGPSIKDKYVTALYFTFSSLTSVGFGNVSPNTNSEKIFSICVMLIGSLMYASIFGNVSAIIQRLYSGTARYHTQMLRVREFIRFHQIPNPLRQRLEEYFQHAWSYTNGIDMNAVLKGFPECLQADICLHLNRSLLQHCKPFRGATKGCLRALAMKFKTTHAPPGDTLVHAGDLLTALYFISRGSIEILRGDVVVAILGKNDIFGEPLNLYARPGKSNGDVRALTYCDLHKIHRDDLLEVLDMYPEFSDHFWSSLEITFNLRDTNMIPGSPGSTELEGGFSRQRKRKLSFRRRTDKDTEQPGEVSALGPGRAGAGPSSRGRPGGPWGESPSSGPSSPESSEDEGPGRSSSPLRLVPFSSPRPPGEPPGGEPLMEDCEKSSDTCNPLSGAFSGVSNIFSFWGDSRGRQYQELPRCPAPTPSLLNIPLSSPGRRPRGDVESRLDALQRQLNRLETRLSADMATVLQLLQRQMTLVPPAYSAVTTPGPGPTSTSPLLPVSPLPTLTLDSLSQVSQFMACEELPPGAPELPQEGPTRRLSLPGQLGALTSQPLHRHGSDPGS

Compound | hERG current change (%, negative = inhibition) at 10uM [%]
O=C(OCc1ccc([N+](=O)[O-])cc1)c1cc2ccccc2oc1=O | -0.805
O=C(CCc1ccc(S(=O)(=O)NC2CCCCC2)cc1)NCc1ccc(Cl)cc1 | 4.7
C(=C\c1ccco1)/c1ccc2ccccc2n1 | -16
O=C1CSC(c2cccnc2)N1c1ccc(F)cc1 (stereo not drawn) | -1.6
Cc1nc2scc(C)n2c(=O)c1S(=O)(=O)N1CCN(c2ccccn2)CC1 | -2.3
COc1ccc(/C=N/NC(=O)Cn2nnc3ccccc32)cc1OC | -20
N#CCCN(C(=O)COC(=O)COc1ccc(Cl)cc1)c1ccccc1 | 7.9
CCOC(=O)N1CCN(C(=O)c2c(-c3ccccc3Cl)noc2C)CC1 | 17.5
COc1ccc(NC(=O)c2ccccc2SC)cc1OC | -6.67
Cc1ccc(NC(=O)CCC(=O)N/N=C/c2coc3ccc(F)cc3c2=O)cc1 | -8.9
COc1cc(/C=C(/C#N)C(=O)Nc2ccccc2)ccc1OCc1ccc(C(=O)O)cc1 | 3.98
COC(=O)c1cc(C(=O)OC)cc(-n2c(C)cc(C(=O)COC(=O)CNS(=O)(=O)c3ccc(C)cc3)c2C)c1 | -7.5
CCNC(=O)c1c(C)nc2ccccn12 | -5.31
O=C(NCc1ccc2c(c1)OCO2)c1ccc(COc2cc(Cl)ccc2Cl)o1 | 11.7
O=C(COC(=O)C1CCC(N2C(=O)C3C4CCC(C4)C3C2=O)CC1)c1ccc(F)cc1 (stereo not drawn) | 0.93
CN1CCN(S(=O)(=O)c2cccc(C(=O)NCc3ccc(Cl)cc3)c2)CC1 | -16.5
O=C(Nc1ccc2[nH]c(=O)[nH]c2c1)c1c(F)c(F)c(F)c(F)c1F | 14.2
CCCC(=O)NC(=S)Nc1ccc(Cl)cn1 | 13.3
N#CCCN(C(=O)COC(=O)CCc1c[nH]c2ccccc12)c1ccc(F)cc1 | -3.93
COC(=O)c1ccccc1OCC(=O)N1CCN(c2ccc(Cl)cc2)CC1 | -6.69
COC(=O)/C=C1/S/C(=N/NC(=O)c2ccccc2C)NC1=O | 7.46
COc1ccccc1CNC(=O)COC(=O)c1ccc([N+](=O)[O-])o1 | -2.08
COC(=O)c1nnn(CC(=O)Nc2cccc(Cl)c2)c1C(=O)OC | -0.0399
Cc1ccnc(NS(=O)(=O)c2ccc(NC(=O)CN3C(=O)c4ccccc4S3(=O)=O)cc2)n1 | 2.45
